Where “and” joins values, the source holds several entries; their conditions need not be identical. Equal values may be shown once. About 550 (0.42%) of roughly 130,000 compounds were called active. This list was built around the results that the source calls inconclusive (neither active nor inactive); the mix of calls is not that of the screen. Calls come from the whole dose curve; as a rule, active = well fitted inhibition curve with a large enough effect; inconclusive = small, poorly fitted or top-dose-only effect, or effect the other way; inactive = flat fitted curve, though single readings scatter. Potencies of inconclusive entries are doubtful fits and often do not repeat.
Experiment: qHTS Assay for Inhibitors of the ERK Signaling Pathway using a Homogeneous Screening Assay; Stimulation with EGF; note: nearly all actives have a fitted effect of over 55% in size;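 for activity change, negative = inhibition: plate controls were stimulated vehicle wells for no effect and unstimulated vehicle basal for full effect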
Settings: HEK293-V1b, EGF-stimulated phospho-ERK AlphaScreen; activity change, negative = inhibition: at the top concentration
Procedure, shortened: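 HEK293 cells stably expressing V1b receptor, serum-reduced (1% FBS) overnight, pretreated 30 min with compound, then stimulated 5 min with 25 nM EGF; phospho-ERK detected by AlphaScreen SureFire. AC50 from Hill fits, normalized to DMSO and EGF.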
For `COC(=O)C(O)(c1ccc(NC(=O)c2ccccc2)cc1)C(F)(F)F` (stereo not given), the Potency was inconclusive: 25.1 µM [inhibitor, single point]. In the case of `CC[C@@H]1CN2CCc3cc(OC)c(OC)cc3[C@H]2C[C@@H]1C[C@H]1NCCc2cc(OC)c(OC)cc21`, the “activity change, negative = inhibition” value is reported as inactive: -14.8% [at 25.7 µM]. For `Clc1ccc(COC(Cn2ccnc2)c2ccc(Cl)cc2Cl)c(Cl)c1` (stereo not given), the Potency was inconclusive: 31.6 µM [inhibitor, single point] and inconclusive: 39.8 µM [inhibitor, single point]. For `O=C1C(Cl)=C(Cl)C(=O)C(Cl)=C1Cl`, the Potency was active: 10 µM. In the case of `c1ccc2c(CCNC3CCCCC3)c[nH]c2c1`, the Potency is reported as inconclusive: 0.0316 µM [activator, full curve]. For `O=C(OCC1O[C@@H](OC(=O)c2cc(O)c(O)c(O)c2)[C@@H](OC(=O)c2cc(O)c(O)c(O)c2)[C@@H](OC(=O)c2cc(O)c(O)c(O)c2)[C@@H]1OC(=O)c1cc(O)c(O)c(O)c1)c1cc(O)c(O)c(O)c1` (stereo not given in full), the Potency was inconclusive: 39.8 µM [inhibitor, single point]. In the case of `COC(=O)C1=CO[C@@H](C)[C@@H]2CN3CC[C@]4(C(=O)Nc5c4ccc(OC)c5OC)[C@H]3C[C@H]12`, the “activity change, negative = inhibition” value is reported as inactive: -4.77%. In the case of `COc1ccc(OC)c(C(O)C(C)N)c1` (stereo not given), the Potency is reported as inconclusive: 35.5 µM [activator, single point]. For `CC1CCN(c2cc(Br)c([N+](=O)[O-])cc2F)CC1`, the Potency was inconclusive: 31.6 µM [inhibitor, partial curve]. In the case of `O=C1NC(=O)N(Cc2ccccc2)C(=O)/C1=C\C=C\c1ccco1`, the Potency is reported as inconclusive: 31.6 µM [inhibitor, single point]. For `C(=N\NC1=NCCCCC1)/c1c[nH]c2ccccc12`, the Potency was inconclusive: 0.631 µM [activator, single point]. In the case of `CCN1C(=O)C(=Cc2ccc(C)s2)C(=O)N(CC)C1=S`, the Potency is reported as inconclusive: 35.5 µM [inhibitor, single point]. With `COc1ccc(C2CC(c3cccs3)=NN2c2nc(C)c(C(C)=O)s2)cc1OC` (stereo not given) the Potency was inconclusive: 12.6 µM [activator, partial curve]. For `O=C(COc1ccccc1)c1cn(Cc2ccccc2)c2ccccc12`, the Potency was inconclusive: 31.6 µM [activator, single point]. For `O=C(O)CN1C(=O)CN=C(c2ccccn2)c2cc(Cl)ccc21`, the “activity change, negative = inhibition” value was inactive: -6.03% [at 57.5 µM]. In the case of `COc1ccc(NC(=O)N2CCC3(CC2)CCN(C(=O)Oc2ccccc2)CC3)cc1`, the Potency is reported as inconclusive: 0.282 µM [inhibitor, full curve, poor fit]. In the case of `CCN(CC)c1ccc([N+](=O)[O-])c2cccnc12`, the Potency is reported as inconclusive: 14.1 µM [inhibitor, partial curve]. In the case of `O=C1NC(=O)N(CCC2=CCCCC2)C(=O)/C1=C\c1cccs1`, the Potency is reported as inconclusive: 39.8 µM [inhibitor, single point]. With `C/C=C(\C)C(=O)OC1C(C)=C2C(C1OC(=O)CCCCC)C(C)(OC(C)=O)CC(OC(=O)CCC)C1(O)C2OC(=O)C1(C)O` (stereo not given) the Potency was inconclusive: 39.8 µM [inhibitor, single point]. In the case of `Cc1ccnc2c1NC(=O)c1cccnc1N2C1CC1`, the Potency is reported as inconclusive: 3.55 µM [inhibitor, single point] and inconclusive: 8.91 µM [inhibitor, single point]. In the case of `CCNc1cc(N2CCN(C)CC2)ccc1[N+](=O)[O-]`, the Potency is reported as inconclusive: 15.8 µM [activator, partial curve, poor fit]. With `COc1cc(N)c(Cl)cc1C(=O)NC1CN2CCC1CC2` (stereo not given) the Potency was inconclusive: 39.8 µM [inhibitor, single point]. In the case of `O=C(c1ccc2c(c1)OCO2)C1CCCN(CC2CCCCC2)C1` (stereo not given), the Potency is reported as inconclusive: 39.8 µM [inhibitor, single point]. In the case of `CN1CC[C@@]2(CCCN(C(=O)Oc3ccccc3)C2)C1`, the “activity change, negative = inhibition” value is reported as inactive: 4.58%. For `NC(=S)c1cn(C2OC(CO)C(O)C2O)c2ncnc(N)c12` (stereo not given), the “activity change, negative = inhibition” value was inactive: -12% [at 57.5 µM]. For `O=c1c2ccccc2nc2n1CCS2(=O)=O`, the Potency was inconclusive: 31.6 µM [inhibitor, single point]. In the case of `CN1CCN(/N=C/c2c[nH]c3ccccc23)CC1`, the “activity change, negative = inhibition” value is reported as inactive: -3.79% [at 57.5 µM]. In the case of `C[C@]12CC[C@@H]3c4cc(O)c(O)cc4CC[C@H]3[C@@H]1CC[C@@H]2O`, the Potency is reported as inconclusive: 8.91 µM [inhibitor, full curve, poor fit]. In the case of `COc1ccc(CCNCc2sccc2C)cc1OC`, the “activity change, negative = inhibition” value is reported as inactive: 7.39%. In the case of `CC/C=C\C/C=C\C/C=C\C/C=C\C/C=C\CCCC(=O)NC(C)C(=O)O` (stereo not given), the “activity change, negative = inhibition” value is reported as inactive: -0.267%. With `Oc1cc2c(cc1O)[C@H]1c3ccccc3CNC1CC2` (stereo not given in full) the Potency was inconclusive: 17.8 µM [inhibitor, single point]. For `CC(C)(C)c1csc(NC(=O)Nc2ccccc2)n1`, the Potency was inconclusive: 28.2 µM [inhibitor, single point]. For `CC(=O)O.CC(=O)O.[Cd]`, the “activity change, negative = inhibition” value was inactive: 21.8%. For `CCOC(=O)C1(CCc2ccccc2)CCN(Cc2cccc3c2OCO3)CC1`, the “activity change, negative = inhibition” value was inactive: -2.05% [at 57.5 µM]. With `CC(C)[C@]1(NC(=O)[C@@H]2C=C3c4cccc5[nH]cc(c45)C[C@H]3N(C)C2)O[C@@]2(O)C3CCCN3C(=O)[C@H](Cc3ccccc3)N2C1=O` (stereo not given in full) the “activity change, negative = inhibition” value was inactive: -13.8%. In the case of `C[C@@H](Cc1cccc(C(F)(F)F)c1)NCCCc1ccccc1`, the “activity change, negative = inhibition” value is reported as inactive: 0.83%. For `CN(C)c1ccc(/C=C/C=C2/C(=O)NC(=O)N(c3ccccc3)C2=O)cc1`, the Potency was inconclusive: 25.1 µM [inhibitor, partial curve]. In the case of `Cn1c2c(c3ccccc31)CCNCC2`, the Potency is reported as inconclusive: 35.5 µM [inhibitor, single point]. For `O=c1[nH]c(O)c(/C=C2/C=CC(c3cc(Cl)ccc3Cl)=N2)c(=O)[nH]1`, the Potency was active: 28.2 µM. With `CCC1CN2CCC1CC2C(O)c1ccnc2ccccc12` (stereo not given) the “activity change, negative = inhibition” value was inactive: -0.336%. In the case of `CCC(=NCc1ccco1)c1c(O)n(C)c(=O)n(C)c1=O`, the “activity change, negative = inhibition” value is reported as inactive: -1.08% [at 57.5 µM]. With `Cc1cccc(C)c1OC(=O)Cc1ccccc1` the “activity change, negative = inhibition” value was inactive: -1.17%. For `C=CCn1c(O)c(C(CC)=Nc2ccc3c(c2)CCC3)c(=O)[nH]c1=O`, the Potency was inconclusive: 39.8 µM [inhibitor, single point]. For `Cc1ccc(-c2[nH]nc3c2C(c2ccccc2OC(=O)N2CCOCC2)C(C#N)=C(N)O3)cc1` (stereo not given), the Potency was inconclusive: 3.55 µM [inhibitor, single point]. For `O=[N+]([O-])c1ccc(N2CCCC2)c2ccncc12`, the “activity change, negative = inhibition” value was inactive: 3.38%. For `O=c1[nH]c(=S)[nH]c(O)c1N=Nc1ccc(-c2ccccc2)cc1[N+](=O)[O-]`, the Potency was inconclusive: 35.5 µM [inhibitor, single point]. For `CCC(C)N1C(=O)/C(=C\c2ccc(N3CCCCCC3)cc2)C(=O)NC1=S` (stereo not given), the “activity change, negative = inhibition” value was inactive: 0.742%. With `CC(=O)OCC1=C(C(=O)[O-])N2C(=O)[C@@H](NC(=O)CCC[C@@H](N)C(=O)[O-])[C@H]2SC1.[Zn+2]` the “activity change, negative = inhibition” value was inactive: 7.33%. In the case of `Cc1cccc2c3c(ccc12)C1=C(C(=O)C3=O)C(C)CO1` (stereo not given), the Potency is reported as inconclusive: 15.8 µM [inhibitor, single point]. In the case of `N#C/C(=C\c1ccc(O)c(O)c1)C(=O)NCCCNC(=O)/C(C#N)=C/c1ccc(O)c(O)c1`, the Potency is reported as inconclusive: 25.1 µM [inhibitor, single point]. In the case of `Brc1c(NC2=NCCN2)ccc2nccnc12`, the Potency is reported as inconclusive: 39.8 µM [inhibitor, single point]. With `O=C(C/C=N\OCc1ccc([N+](=O)[O-])cc1)Nc1ccc(F)cc1F` the Potency was inconclusive: 15.8 µM [inhibitor, partial curve, poor fit]. With `Clc1ccc(C2=CCC[C@H]3CC[C@@H]2N3)cn1` the “activity change, negative = inhibition” value was inactive: 4.05%. For `CCN1C(=O)NC(=O)/C(=C/c2cc(C)n(-c3sc(C)c(C)c3C#N)c2C)C1=O`, the Potency was inconclusive: 6.31 µM [inhibitor, partial curve]. In the case of `Clc1ccc(C(c2ccc(Cl)cc2)n2cc[n+](CC(OCc3ccc(Cl)cc3Cl)c3ccc(Cl)cc3Cl)c2)cc1` (stereo not given), the Potency is reported as inconclusive: 25.1 µM [inhibitor, single point]. With `Cc1c(P(=S)(c2ccccc2)c2ccccc2)[n+]2ccccc2n1C` the “activity change, negative = inhibition” value was inactive: -10.7%. For `CC(=O)Cc1ccc(OC(C)C)cc1`, the “activity change, negative = inhibition” value was inactive: 10.3% [at 57.5 µM]. In the case of `O=C1C(=O)c2cccc3cccc1c23`, the “activity change, negative = inhibition” value is reported as inactive: 8.25%. In the case of `CCCCCCCCCCCCCCCC[n+]1ccccc1`, the Potency is reported as inconclusive: 39.8 µM [inhibitor, single point]. In the case of `CN1C(=O)c2ccccc2NC(=O)C1Cc1ccccc1` (stereo not given), the “activity change, negative = inhibition” value is reported as inactive: -15.9% [at 57.5 µM]. For `O=c1c(O)c(-c2ccc(O)c(O)c2)oc2cc(O)cc(O)c12`, the Potency was inconclusive: 31.6 µM [inhibitor, single point]. In the case of `CCOc1cc(CNCCc2c[nH]c3ccccc23)cc(Cl)c1OCC`, the Potency is reported as inconclusive: 35.5 µM [inhibitor, single point]. In the case of `CCOC(=O)C(O)(c1ccc(N=c2ccccn2C)cc1)C(F)(F)F` (stereo not given), the Potency is reported as inconclusive: 1.12 µM [inhibitor, full curve, poor fit]. In the case of `CCCN1CCc2cccc3c2C1Cc1ccc(O)c(O)c1-3` (stereo not given), the Potency is reported as inconclusive: 39.8 µM [inhibitor, single point]. For `CCN(CC)S(=O)(=O)c1cccc(N=Nc2c(O)n(CC)c(=S)n(CC)c2=O)c1`, the Potency was inconclusive: 10 µM [inhibitor, partial curve]. In the case of `Cc1c(CCN)ccc2c1[nH]c1ccccc12`, the Potency is reported as inconclusive: 28.2 µM [inhibitor, single point]. For `C#CCNc1ccncc1S(=O)(=O)NC(=O)NC(C)C`, the “activity change, negative = inhibition” value was inactive: 8.18%. In the case of `CC(=O)C1CC[C@H]2C3CC[C@@H]4CC(O)CC[C@@]4(C)C3CC[C@]12C` (stereo not given in full), the Potency is reported as inconclusive: 22.4 µM [inhibitor, partial curve]. For `C[C@@H](Cc1ccc(O)cc1)NC[C@@H](O)c1cc(O)cc(O)c1`, the “activity change, negative = inhibition” value was inactive: 4.35% [at 25.7 µM]. In the case of `COc1ccccc1N1CCN(Cc2ccc(F)cc2)CC1`, the Potency is reported as inconclusive: 39.8 µM [inhibitor, single point].

From PubChem BioAssay AID1454 (National Center for Advancing Translational Sciences (NCATS), 2008)
Potency is the fitted concentration of half-maximal effect; tags give direction and shape of the fitted curve.
